Laboratory results published in the RNAGym collection of RNA variant scans (doi:10.1093/nar/gkz1192).
The source gives no read counts; variants with many changes may rest on few reads.

B1: CPEB3 Ribozyme (parent)
chain: UAACAGGGGGCCACAGCAGAAGCGUUCACGUCGCAGCCCCUGUCAGAUUCUGGUGAAUCUGCGAAUUCUGCUGUAUAUCUC

Variants of: B1
Assay: self-cleavage, relative activity (ratio to wild type); higher = more cleavage; in vitro, sequencing
In short: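 Relative activity compares each variant's cleaved/total read fraction with that of the unmutated ribozyme. To get these fractions, barcoded CPEB3 ribozyme libraries from rounds of error-prone PCR were transcribed with T7 RNA polymerase for 5 hours at 37°C and then given 15 min of DNase I treatment before EDTA was added. The RNAs were reverse transcribed with template switching and sequenced on Illumina, and DNA sequencing linked barcodes to variants. A minimum of 5 reads applied, and three batches were averaged.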
G9A U26C U41C U67A U72C gave a self-cleavage of 0.07.
With G9A U26C U48C U54A the self-cleavage was 0.14.
For G9A U26C U51A G52A, the self-cleavage was 0.07.
In the case of G9A U26C U51G, the self-cleavage is reported as 0.07.
With G9A U26C U76C the self-cleavage was 0.1.
Variant G9A U26G A65G has a self-cleavage of 0.06.
With G9A U26G U49C A65G U66C the self-cleavage was 0.11.
G9A U31C A64C showed a self-cleavage of 0.05.
With G9A U31C C38A A45G A56G the self-cleavage was 0.16.
Variant G9A U31C C59U has a self-cleavage of 0.07.
Variant G9A U31C U41A U54C has a self-cleavage of 0.13.
With G9A U31C U54A U74C the self-cleavage was 0.33.
Work on G9A U31C U69C A77U yielded a self-cleavage of 0.04.
Variant G9A U41A U48C U60C has a self-cleavage of 0.04.
G9A U41C A56G U76C U80C gave a self-cleavage of 0.2.
In the case of G9A U41C U43C, the self-cleavage is reported as 0.19.
For G9A U41C U51A U72C, the self-cleavage was 0.84.
Work on G9A U41C U58C U67A yielded a self-cleavage of 0.05.
For G9A U41C U69C, the self-cleavage was 0.09.
G9A U41C U80C gave a self-cleavage of 0.15.
Variant G9A U41G A45G G61A U74C has a self-cleavage of 0.06.
For G9A U41G A56G, the self-cleavage was 0.37.
With G9A U43A A77C the self-cleavage was 0.38.
In the case of G9A U43A G52C A57G, the self-cleavage is reported as 0.22.
Work on G9A U43C A47U yielded a self-cleavage of 0.34.
G9A U43C G46U U76C gave a self-cleavage of 0.22.
With G9A U43C U54A C59U the self-cleavage was 0.16.
Work on G9A U43C U58C yielded a self-cleavage of 0.07.
G9A U43G A45U U72C gave a self-cleavage of 0.07.
Work on G9A U43G A75G yielded a self-cleavage of 0.04.
G9A U49C A56G U72G showed a self-cleavage of 0.32.
With G9A U49C G53C U80A the self-cleavage was 0.05.
Variant G9A U49C U51C U60A U72C has a self-cleavage of 0.14.
In the case of G9A U49C U54C U69C, the self-cleavage is reported as 0.07.
G9A U49C U54G U67C U69C showed a self-cleavage of 0.08.
For G9A U49C U58C, the self-cleavage was 0.08.
In the case of G9A U49C U60A, the self-cleavage is reported as 0.05.
Variant G9A U49C U76A has a self-cleavage of 0.05.
G9A U49C U78C gave a self-cleavage of 0.27.
For G9A U51A A65G, the self-cleavage was 0.12.
Work on G9A U51A U58G C71A A75G yielded a self-cleavage of 0.04.
With G9A U51C A75G the self-cleavage was 0.14.
G9A U58A A64U C68U showed a self-cleavage of 0.05.
In the case of G9A U58A U80C, the self-cleavage is reported as 0.23.
Work on G9A U58C U60C U66C U67A yielded a self-cleavage of 0.11.
With G9A U58C U67C the self-cleavage was 0.12.
With G9A U60C U72C U80A the self-cleavage was 0.35.
With G9A U69G U76C the self-cleavage was 0.14.
Variant G9C A13C A18G A45U U48C U49C has a self-cleavage of 0.41.
G9C A13G A15G A18U A56C G63U gave a self-cleavage of 0.07.
With G9C A13G A15G C23U A45G A47G A64G the self-cleavage was 0.08.
G9C A13U A20G A45U A56U U67C showed a self-cleavage of 0.09.
With G9C A15U A21U A64G the self-cleavage was 0.16.
For G9C A18G U67C, the self-cleavage was 0.15.
Variant G9C A21G A47U G53C U74C U80C has a self-cleavage of 0.07.
G9C A21G G46U G53C U67C gave a self-cleavage of 0.12.
For G9C A21G U43C, the self-cleavage was 0.23.
Variant G9C A21G U60A has a self-cleavage of 0.05.
G9C A21U C44U U54A showed a self-cleavage of 0.05.
G9C A21U U31C U48C A57U U67C gave a self-cleavage of 0.07.
Work on G9C A28G A57C U67C yielded a self-cleavage of 0.04.
G9C A28U C34A U43C G70A U78C gave a self-cleavage of 0.04.
Work on G9C A28U U31A G33A U54C yielded a self-cleavage of 0.08.
Variant G9C A45C U78C has a self-cleavage of 0.28.
G9C A45U A64G gave a self-cleavage of 0.22.
For G9C A47U U72C, the self-cleavage was 0.33.
G9C A56G U67C gave a self-cleavage of 0.12.
In the case of G9C C11G A45U U72G A77C, the self-cleavage is reported as 0.03.
With G9C C11U U60C A65G A77U the self-cleavage was 0.15.
G9C C12U A20U U60A gave a self-cleavage of 0.29.
Work on G9C C12U A28G A56U U74C yielded a self-cleavage of 0.04.
With G9C C14U U43C U48C U49A U54G the self-cleavage was 0.04.
With G9C C40U U54A the self-cleavage was 0.1.
G9C C59G G73A gave a self-cleavage of 0.29.
In the case of G9C G10A U67C U72C A75G U80C, the self-cleavage is reported as 0.08.
Variant G9C G24A A35U U69C U72C has a self-cleavage of 0.05.
For G9C G24A U25C U49C, the self-cleavage was 0.11.
Work on G9C G24A U26C C38U U54C yielded a self-cleavage of 0.04.
G9C G30A U80G gave a self-cleavage of 0.33.
G9C G36U U41C U43C U80C gave a self-cleavage of 0.07.
Variant G9C U25A G30A A35U U67A has a self-cleavage of 0.06.
Variant G9C U25C A64G U66C has a self-cleavage of 0.21.
G9C U26C A35C U76A showed a self-cleavage of 0.18.
Work on G9C U26C A35G A57G U60C yielded a self-cleavage of 0.09.
